Measured values as given in patent publication US9023789B2, “Amylin analogs and pharmaceutical compositions thereof” (Novo Nordisk A/S, priority 2012, dated 2015).
The name of at least one read-out is uncertain. Numbered stars: 1 amine (or outer) side, 2 acyl side, 3 side chain; on linkers, the order of the positions; unused ones are H or OH. Bridge positions count the residues as written; N and C are the ends. Side chains are listed from the residue outwards. Peptide text beside a SMILES is read from it. * marks the point of attachment. C20 diacid = O=C(O)CCCCCCCCCCCCCCCCCCC(=O)*; γGlu = O=C(O)[C@H](CCC(=O)[*:2])N[*:1]; AEEA = NCCOCCOCC(=O)O

assay: ASSAY (III) ThT fibrillation assay for physical stability; format: physicochemical
Outline: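 Physical stability scored by ThT fluorescence (444 nm excitation, 485 nm emission) tracked every 20 min during 37 °C incubation with 960 rpm shaking, ThT at 1 μM final. Values are replicate means with SD at chosen times; HPLC against pramlintide standard gives initial and post-assay soluble concentrations.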

Row | Compound | ThT pH 4.0 recovery (%)
1 | CC[C@H](C)[C@H](NC(=O)[C@H](C)NC(=O)CNC(=O)[C@H](Cc1ccccc1)NC(=O)[C@H](CC(N)=O)NC(=O)[C@@H]1CCCN1C(=O)[C@H](CO)NC(=O)[C@H](CO)NC(=O)[C@H](Cc1c[nH]cn1)NC(=O)[C@H](CCCNC(=N)N)NC(=O)[C@H](CC(C)C)NC(=O)[C@H](Cc1ccccc1)NC(=O)[C@H](CCC(=O)O)NC(=O)[C@H](C)NC(=O)[C@H](CC(C)C)NC(=O)[C@H](CCCNC(=N)N)NC(=O)[C@H](CCC(N)=O)NC(=O)[C@@H](NC(=O)[C@H](C)NC(=O)[C@@H]1CSSC[C@H](NC(=O)[C@@H](N)CCCCNC(=O)CC[C@H](NC(=O)CC[C@H](NC(=O)CCCCCCCCCCCCCCCCCCC(=O)O)C(=O)O)C(=O)O)C(=O)N[C@@H](CC(N)=O)C(=O)N[C@@H]([C@@H](C)O)C(=O)N[C@@H](C)C(=O)N[C@@H]([C@@H](C)O)C(=O)N1)[C@@H](C)O)C(=O)N1CCC[C@H]1C(=O)N[C@@H](CO)C(=O)N[C@@H](CO)C(=O)N[C@H](C(=O)N[C@@H](CC(N)=O)C(=O)N[C@H](C(=O)NCC(=O)N[C@@H](CO)C(=O)N[C@@H](CCCNC(=N)N)C(=O)N[C@H](C(=O)N[C@@H](Cc1ccc(O)cc1)C(N)=O)[C@@H](C)O)C(C)C)[C@@H](C)O [Example 89] (H-K([γGlu-γGlu-C20 diacid])CNTATCATQRLAEFLRHSSPNFGAIPSSTNVGSRTY-NH2; disulfide 2-7 (inferred); N-terminus assumed) | 86
2 | CC[C@H](C)[C@H](NC(=O)[C@H](C)NC(=O)CNC(=O)[C@H](Cc1ccccc1)NC(=O)[C@H](CC(N)=O)NC(=O)[C@@H]1CCCN1C(=O)[C@H](CO)NC(=O)[C@H](CO)NC(=O)[C@H](Cc1c[nH]cn1)NC(=O)[C@H](CCCNC(=N)N)NC(=O)[C@H](CC(C)C)NC(=O)[C@H](Cc1ccccc1)NC(=O)[C@H](Cc1c[nH]cn1)NC(=O)[C@H](C)NC(=O)[C@H](CC(C)C)NC(=O)[C@H](CCCNC(=N)N)NC(=O)[C@H](CCC(N)=O)NC(=O)[C@@H](NC(=O)[C@H](C)NC(=O)[C@@H]1CSSC[C@H](NC(=O)[C@@H](N)CCCCNC(=O)COCCOCCNC(=O)CCCCCCCCCCCCCCCCCCC(=O)O)C(=O)N[C@@H](CC(N)=O)C(=O)N[C@@H]([C@@H](C)O)C(=O)N[C@@H](C)C(=O)N[C@@H]([C@@H](C)O)C(=O)N1)[C@@H](C)O)C(=O)N1CCC[C@H]1C(=O)N[C@@H](CO)C(=O)N[C@@H](CO)C(=O)N[C@H](C(=O)N[C@@H](CC(N)=O)C(=O)N[C@H](C(=O)NCC(=O)N[C@@H](CO)C(=O)N[C@@H](CC(N)=O)C(=O)N[C@H](C(=O)N[C@@H](Cc1ccc(O)cc1)C(N)=O)[C@@H](C)O)C(C)C)[C@@H](C)O [Example 90] | 42
3 | CC[C@H](C)[C@H](NC(=O)[C@H](C)NC(=O)CNC(=O)[C@H](Cc1ccccc1)NC(=O)[C@H](CC(N)=O)NC(=O)[C@@H]1CCCN1C(=O)[C@H](CO)NC(=O)[C@H](CO)NC(=O)[C@H](Cc1c[nH]cn1)NC(=O)[C@H](CCCNC(=N)N)NC(=O)[C@H](CC(C)C)NC(=O)[C@H](Cc1ccccc1)NC(=O)[C@H](CC(N)=O)NC(=O)[C@H](C)NC(=O)[C@H](CC(C)C)NC(=O)[C@H](CCCNC(=N)N)NC(=O)[C@H](CCC(N)=O)NC(=O)[C@@H](NC(=O)[C@H](C)NC(=O)[C@@H]1CSSC[C@H](NC(=O)[C@@H](N)CCCCNC(=O)COCCOCCNC(=O)CCCCCCCCCCCCCCCCCCC(=O)O)C(=O)N[C@@H](CC(N)=O)C(=O)N[C@@H]([C@@H](C)O)C(=O)N[C@@H](C)C(=O)N[C@@H]([C@@H](C)O)C(=O)N1)[C@@H](C)O)C(=O)N1CCC[C@H]1C(=O)N[C@@H](CO)C(=O)N[C@@H](CO)C(=O)N[C@H](C(=O)N[C@@H](CC(N)=O)C(=O)N[C@H](C(=O)NCC(=O)N[C@@H](Cc1c[nH]cn1)C(=O)N[C@@H](CC(N)=O)C(=O)N[C@H](C(=O)N[C@@H](Cc1ccc(O)cc1)C(N)=O)[C@@H](C)O)C(C)C)[C@@H](C)O [Example 91] | 88
4 | CC[C@H](C)[C@H](NC(=O)[C@H](C)NC(=O)CNC(=O)[C@H](Cc1ccccc1)NC(=O)[C@H](CC(N)=O)NC(=O)[C@@H]1CCCN1C(=O)[C@H](CO)NC(=O)[C@H](CO)NC(=O)[C@H](Cc1c[nH]cn1)NC(=O)[C@H](CCCNC(=N)N)NC(=O)[C@H](CC(C)C)NC(=O)[C@H](Cc1ccccc1)NC(=O)[C@H](Cc1c[nH]cn1)NC(=O)[C@H](C)NC(=O)[C@H](CC(C)C)NC(=O)[C@H](CCCNC(=N)N)NC(=O)[C@H](CCC(N)=O)NC(=O)[C@@H](NC(=O)[C@H](C)NC(=O)[C@@H]1CSSC[C@H](NC(=O)[C@@H](N)CCCCNC(=O)CC[C@H](NC(=O)CC[C@H](NC(=O)CCCCCCCCCCCCCCCCCCC(=O)O)C(=O)O)C(=O)O)C(=O)N[C@@H](CC(N)=O)C(=O)N[C@@H]([C@@H](C)O)C(=O)N[C@@H](C)C(=O)N[C@@H]([C@@H](C)O)C(=O)N1)[C@@H](C)O)C(=O)N1CCC[C@H]1C(=O)N[C@@H](CO)C(=O)N[C@@H](CO)C(=O)N[C@H](C(=O)N[C@@H](CC(N)=O)C(=O)N[C@H](C(=O)NCC(=O)N[C@@H](CO)C(=O)N[C@@H](CC(N)=O)C(=O)N[C@H](C(=O)N[C@@H](Cc1ccc(O)cc1)C(N)=O)[C@@H](C)O)C(C)C)[C@@H](C)O [Example 92] | 0
5 | CC[C@H](C)[C@H](NC(=O)[C@H](C)NC(=O)CNC(=O)[C@H](Cc1ccccc1)NC(=O)[C@H](CC(N)=O)NC(=O)[C@@H]1CCCN1C(=O)[C@H](CO)NC(=O)[C@H](CO)NC(=O)[C@H](Cc1c[nH]cn1)NC(=O)[C@H](CCCNC(=N)N)NC(=O)[C@H](CC(C)C)NC(=O)[C@H](Cc1ccccc1)NC(=O)[C@H](C)NC(=O)[C@H](C)NC(=O)[C@H](CC(C)C)NC(=O)[C@H](CCCNC(=N)N)NC(=O)[C@H](CCC(N)=O)NC(=O)[C@@H](NC(=O)[C@H](C)NC(=O)[C@@H]1CSSC[C@H](NC(=O)[C@@H](N)CCCCNC(=O)CC[C@H](NC(=O)CCCCCCCCCCCCCCCCCCC(=O)O)C(=O)O)C(=O)N[C@@H](CC(N)=O)C(=O)N[C@@H]([C@@H](C)O)C(=O)N[C@@H](C)C(=O)N[C@@H]([C@@H](C)O)C(=O)N1)[C@@H](C)O)C(=O)N1CCC[C@H]1C(=O)N[C@@H](CO)C(=O)N[C@@H](CO)C(=O)N[C@H](C(=O)N[C@@H](CC(N)=O)C(=O)N[C@H](C(=O)NCC(=O)N[C@@H](Cc1c[nH]cn1)C(=O)N[C@@H](CC(N)=O)C(=O)N[C@H](C(=O)N[C@@H](Cc1ccc(O)cc1)C(N)=O)[C@@H](C)O)C(C)C)[C@@H](C)O [Example 93] (H-K([γGlu-C20 diacid])CNTATCATQRLAAFLRHSSPNFGAIPSSTNVGHNTY-NH2; disulfide 2-7; N-terminus assumed) | 89
6 | CC[C@H](C)[C@H](NC(=O)[C@H](C)NC(=O)CNC(=O)[C@H](Cc1ccccc1)NC(=O)[C@H](CC(N)=O)NC(=O)[C@@H]1CCCN1C(=O)[C@H](CO)NC(=O)[C@H](CO)NC(=O)[C@H](Cc1c[nH]cn1)NC(=O)[C@H](CCCNC(=N)N)NC(=O)[C@H](CC(C)C)NC(=O)[C@H](Cc1ccccc1)NC(=O)[C@H](C)NC(=O)[C@H](C)NC(=O)[C@H](CC(C)C)NC(=O)[C@H](CCCNC(=N)N)NC(=O)[C@H](CCC(N)=O)NC(=O)[C@@H](NC(=O)[C@H](C)NC(=O)[C@@H]1CSSC[C@H](NC(=O)[C@@H](N)CCCCNC(=O)CC[C@H](NC(=O)CCCCCCCCCCCCCCCCCCC(=O)O)C(=O)O)C(=O)N[C@@H](CC(N)=O)C(=O)N[C@@H]([C@@H](C)O)C(=O)N[C@@H](C)C(=O)N[C@@H]([C@@H](C)O)C(=O)N1)[C@@H](C)O)C(=O)N1CCC[C@H]1C(=O)N[C@@H](CO)C(=O)N[C@@H](CO)C(=O)N[C@H](C(=O)N[C@@H](CC(N)=O)C(=O)N[C@H](C(=O)NCC(=O)N1CCC[C@H]1C(=O)N[C@@H](CC(N)=O)C(=O)N[C@H](C(=O)N[C@@H](Cc1ccc(O)cc1)C(N)=O)[C@@H](C)O)C(C)C)[C@@H](C)O [Example 94] (H-K([γGlu-C20 diacid])CNTATCATQRLAAFLRHSSPNFGAIPSSTNVGPNTY-NH2; disulfide 2-7 (inferred)) | 0
7 | CC[C@H](C)[C@H](NC(=O)[C@H](C)NC(=O)CNC(=O)[C@H](Cc1ccccc1)NC(=O)[C@H](CC(N)=O)NC(=O)[C@@H]1CCCN1C(=O)[C@H](CO)NC(=O)[C@H](CO)NC(=O)[C@H](Cc1c[nH]cn1)NC(=O)[C@H](CCCNC(=N)N)NC(=O)[C@H](CC(C)C)NC(=O)[C@H](Cc1ccccc1)NC(=O)[C@H](CC(N)=O)NC(=O)[C@H](C)NC(=O)[C@H](CC(C)C)NC(=O)[C@H](CCCNC(=N)N)NC(=O)[C@H](CCC(N)=O)NC(=O)[C@@H](NC(=O)[C@H](C)NC(=O)[C@@H]1CSSC[C@H](NC(=O)[C@@H](N)CCCCNC(=O)COCCOCCNC(=O)COCCOCCNC(=O)CC[C@H](NC(=O)CCCCCCCCCCCCCCCCCCC(=O)O)C(=O)O)C(=O)N[C@@H](CC(N)=O)C(=O)N[C@@H]([C@@H](C)O)C(=O)N[C@@H](C)C(=O)N[C@@H]([C@@H](C)O)C(=O)N1)[C@@H](C)O)C(=O)N1CCC[C@H]1C(=O)N[C@@H](CO)C(=O)N[C@@H](CO)C(=O)N[C@H](C(=O)N[C@@H](CC(N)=O)C(=O)N[C@H](C(=O)NCC(=O)N[C@@H](CCCNC(=N)N)C(=O)N[C@@H](CC(N)=O)C(=O)N[C@H](C(=O)N[C@@H](Cc1ccc(O)cc1)C(N)=O)[C@@H](C)O)C(C)C)[C@@H](C)O [Example 95] (H-K([AEEA-AEEA-γGlu-C20 diacid])CNTATCATQRLANFLRHSSPNFGAIPSSTNVGRNTY-NH2; disulfide 2-7 (inferred); N-terminus assumed) | 76
